This passage reports z-score results from PubChem BioAssay AID488969 (Vanderbilt High Throughput Screening Facility, 2010).

The full ranking holds about 110,000 compounds; the median of “z-score” is about -0.1, and the highest 2% start at about 2. The list shows a part of the results. Activity calls are given as the source filed them.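 How the source made its calls: active means z-score in the third read window above 3 or below -3; inactive means the rest.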

The experiment deals with Metabotropic glutamate receptor 8 (Rattus norvegicus) (UniProt P70579). The experiment is described as follows: rat mGluR8 modulators via GIRK flux, primary screen, cell-based, thallium flux, HTS (AID 488969). The following applies: HEK293 rat mGluR8, GIRK (G protein-gated inwardly rectifying potassium channel) thallium flux, FluoZin2; at 10 µM; stronger effect = higher value; submaximal glutamate (EC20) added with thallium.
Chain of UniProt P70579 (P70579 whole entry, looked up): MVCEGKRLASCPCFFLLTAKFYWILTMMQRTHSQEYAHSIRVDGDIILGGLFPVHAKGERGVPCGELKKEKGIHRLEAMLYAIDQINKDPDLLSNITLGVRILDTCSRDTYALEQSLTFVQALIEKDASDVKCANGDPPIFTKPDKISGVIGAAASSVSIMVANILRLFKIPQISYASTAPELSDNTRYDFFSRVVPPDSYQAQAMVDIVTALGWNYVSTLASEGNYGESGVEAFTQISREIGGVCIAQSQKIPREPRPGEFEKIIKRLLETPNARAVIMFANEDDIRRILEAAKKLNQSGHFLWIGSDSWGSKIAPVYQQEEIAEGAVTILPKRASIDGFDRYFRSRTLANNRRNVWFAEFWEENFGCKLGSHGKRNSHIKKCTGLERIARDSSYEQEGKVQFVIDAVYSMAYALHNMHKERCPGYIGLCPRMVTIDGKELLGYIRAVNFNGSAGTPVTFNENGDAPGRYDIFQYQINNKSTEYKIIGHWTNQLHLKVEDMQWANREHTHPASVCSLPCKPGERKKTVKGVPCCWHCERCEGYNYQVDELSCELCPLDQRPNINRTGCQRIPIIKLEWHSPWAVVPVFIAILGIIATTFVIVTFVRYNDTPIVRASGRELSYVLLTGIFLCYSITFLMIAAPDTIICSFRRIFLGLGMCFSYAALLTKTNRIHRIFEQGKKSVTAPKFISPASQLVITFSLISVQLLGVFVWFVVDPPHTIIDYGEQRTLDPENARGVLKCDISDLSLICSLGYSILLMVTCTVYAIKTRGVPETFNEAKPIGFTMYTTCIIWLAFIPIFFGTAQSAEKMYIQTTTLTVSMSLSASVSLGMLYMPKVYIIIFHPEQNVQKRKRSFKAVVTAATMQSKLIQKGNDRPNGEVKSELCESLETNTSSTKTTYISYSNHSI
With `Cc1ccc(NC2CCCCC2NS(=O)(=O)c2ccc(Cl)cc2)cc1` (stereo unspecified), the z-score came to 0.13. As for `Cc1c(Br)c([N+](=O)[O-])nn1CC(=O)Nc1sc2c(c1C(=O)OC(C)C)CCC(C)C2` (stereo unspecified), the figure is 0.163. In turn, `O=C(NNC(=O)C12CC3CC(CC(C3)C1)C2)c1cnccn1` returned a z-score of 0.248.

For `Cc1ccc(S(=O)(=O)N2CCN(CC(=O)N/N=C/c3ccco3)CC2)cc1`, the z-score is -0.0503.

`COc1ccc(Nc2cc(=O)n(C3CCCCC3)c(=O)[nH]2)c(OC)c1` showed a z-score of -0.305. In the case of `CCN(CC)CCNC(=O)c1cn(C)c2ccc(S(=O)(=O)N(C)C3CCCCC3)cc2c1=O` it was -0.0651; in that of `N#Cc1nc(-c2ccc(F)cc2)oc1NCCN1CCOCC1`, 0.242; in that of `COc1ccc(-c2cc(C(F)(F)F)nc(SCC(=O)NCCN3CCOCC3)n2)cc1OC`, 0.846. As for `CCn1c(NC(=O)Nc2cccc(C)c2C)cc2sccc21`, the figure is active: 3.12. Molecule `Cc1ccc(NC(=O)CSc2nnc(Cc3cccn3C)n2-c2ccc(F)cc2)c(C)c1` came in with a z-score of -0.525.

Regarding `COc1ccc(CNC(=O)COC(=O)c2cc(-c3ccco3)nc3ccccc23)cc1`, the z-score is -0.777. Molecule `COC(=O)c1ccc(S(=O)(=O)N2CCC(c3nc4ccccc4o3)CC2)cc1` registered a z-score of -0.225. In the case of `CC1(C(=O)NC23CC4CC(CC(C4)C2)C3)CC1(Cl)Cl` (stereo unspecified) it was -0.368; in that of `Cc1nn(-c2ccccc2)c(N2CCCC2)c1/C=N/NC(=O)c1ccccc1O`, -0.454. As for `COc1cc2[nH]c(=O)n(CCC(=O)N3CCC(N4CCCCC4)CC3)c(=O)c2cc1OC`, the figure is 0.8; as for `O=C(COc1cccc(NC(=O)c2ccco2)c1)c1ccc(F)cc1`, -0.699.

In turn, `O=C(c1cccs1)c1coc2ccc(O)c(CN(CCO)CCO)c12` displayed a z-score of -0.481. As for `COC(=O)C(Sc1nc(C)cc(C)c1C#N)c1ccccc1` (stereo unspecified), the figure is -1.09; as for `c1ccc2c(COn3nnc4ccccc43)cccc2c1`, -0.16; as for `CCCCCOC(=O)Cn1c(N2CCCCCC2)nc2c1c(=O)[nH]c(=O)n2C`, -0.49. As for `CCCCNC(=S)NC(=O)c1ccccc1Br`, the figure is active: 6.17.

For the molecule `CN(C)CCNC(=S)Nc1ccccc1Cl`, the z-score is -0.0864. As for `O=C(NNC(=O)c1ccc(O)cc1O)c1ccc(Cl)cc1`, the figure is 0.289. In the case of `C=C(C)Cn1c(SCCN2CCOCC2)nc2c1c(=O)[nH]c(=O)n2C` it was 0.15; in that of `CN(C(=O)COC(=O)c1ccc2c(=O)n3c(nc2c1)CCC3)c1ccccc1`, -0.0823; in that of `CCc1ccc(NS(=O)(=O)c2cccs2)cc1`, -0.536. The molecule `Cc1c(NC(=O)c2ccccc2N(C)S(=O)(=O)c2ccccc2)c(=O)n(-c2ccccc2)n1C` returned a z-score of -0.127. As for `N=c1nc(-c2ccccc2)ccn1O`, the z-score was 2.64.

Regarding `CCNC(=O)CN(c1ccc(CC)cc1)S(C)(=O)=O`, the z-score is -0.127. In the case of `CN(C)CC(C)(C)CNS(=O)(=O)c1cccc(Cl)c1Cl` it was -0.445; in that of `O=[N+]([O-])c1cccc(/C=N/N2CCN(c3ccccn3)CC2)c1`, -0.169. As for `COc1cccc(C2/C(=C(\O)c3ccc(OC)c(OC)c3)C(=O)C(=O)N2c2cc(C)on2)c1` (stereo unspecified), the figure is -0.615.

Molecule `CC(C)(C)C(=O)Nc1ccccc1C(=O)OCC(=O)c1ccc2c(c1)OCCO2` had a z-score of -0.731. As for `COc1cccc(C(C(=O)NC(C)(C)C)N(C(=O)CCC(=O)Nc2cc(C)on2)C(C)(C)C)c1OC` (stereo unspecified), the figure is -0.147. As for `CC(Sc1nncn1C)C(=O)Nc1ccc(Cl)cn1` (stereo unspecified), the figure is 0.18. In the case of `COc1cccc(NS(=O)(=O)Cc2ccccc2)c1` it was -0.15; in that of `Nc1nc(NCc2ccco2)nn1-c1ccccc1`, -0.042; in that of `CCC(CC)C(=O)Nc1cc(C(=O)OC)cc(C(=O)OC)c1`, -0.461. Take `CCOC(=O)c1c(N)c(C#N)c2n1CCCC2`: the z-score is -0.108.

As to `CCC(O)(CC)C(=O)NN(C(=O)CCl)c1ccccc1`, the z-score was determined as 0.856. As for `COC(=O)c1cc(C#N)c(SCc2ccccc2)nc1C`, the figure is -0.205; as for `CC1(C)N=C(SCC(=O)Nc2ccc(Cl)cc2)C(c2ccccc2)=N1`, -0.292. As for `COc1cc(C)c(C(C)C)cc1S(=O)(=O)N1CCN(C)CC1`, the figure is 0.102.

As to `O=C(OCC(=O)N1CCc2ccccc21)c1c2c(nc3ccccc13)CCCC2`, the z-score is -0.688.

On to `O=C(N/N=C/c1cccs1)C1COc2ccccc2O1` (stereo unspecified), for which the z-score came to 0.238. In the case of `NC(=O)C1(N2CCCCC2)CCN(C(=O)CSc2nc(C(F)(F)F)cc(=O)[nH]2)CC1` it was -0.315.

Take `CCC(C)(C(=O)NC1CCCC1)N(C(=O)c1ccccn1)c1ccccc1` (stereo unspecified): the z-score was -0.308. In the case of `O=c1c(Cl)c(N2CCCCC2)cnn1-c1nc2ccccc2[nH]1` it was -0.0787; in that of `COc1ccc(/C=C/c2nc(N)nc(-c3ccccc3O)n2)cc1OC`, -0.495. As for `CN1CCN(c2ncnc3c2cnn3-c2ccc(Cl)cc2)CC1`, the figure is 0.276; as for `CCN1CCC(C(N)=O)CC1`, -0.243; as for `CC1=NN(C(=O)Cc2ccc([N+](=O)[O-])cc2)C(O)(c2ccccc2)C1` (stereo unspecified), -0.363. In the case of `CCCc1nc2sc3ccccc3c(=O)c2c(=O)n1CCOC` it was -0.0979. Consider `O=c1c2ccccc2nc2n1CC/C2=C\c1ccccc1[N+](=O)[O-]`, for which the z-score stood at 0.108.

The molecule `O=C(O)c1c(F)c(F)c(F)c(F)c1-c1ccc(Cl)cc1` came in with a z-score of 0.0898. As for `COc1ccccc1NC(=S)NC(=O)CC(C)C`, the figure is 0.0124. As for `CCNc1ccc(C(=O)N/N=C/c2c(C)nn(-c3ccccc3)c2N2CCCC2)cc1[N+](=O)[O-]`, the figure is -1.03. In turn, `CCCNc1c(N)n(-c2ccccc2)c(=O)[nH]c1=O` registered a z-score of -0.0619. As for `CCOC(=O)C1CCCN(C(=S)Nc2cccc(Cl)c2C)C1` (stereo unspecified), the figure is -0.429; as for `O=C(NCCCc1ccccc1)C1CC(=O)N(c2ccc3c(c2)OCCO3)C1` (stereo unspecified), 0.125; as for `CS(=O)(=O)Nc1ccc(C(=O)NCC2CCCO2)cc1` (stereo unspecified), -0.102.

`CC(=O)c1cccc(NC(=O)C(Sc2ncnc3ccccc23)c2ccccc2)c1` (stereo unspecified) gave a z-score of -0.266. As for `N#Cc1sc2nc(-c3cccs3)cc(-c3ccccc3)c2c1N`, the figure is -0.201; as for `Cc1ccccc1OCC(O)Cn1c(=N)n(CCN2CCOCC2)c2ccccc21` (stereo unspecified), 1.12; as for `CCN1CCN(C(=S)Nc2ccc(Cl)cc2Cl)CC1`, -0.514. In the case of `CCOC(=O)c1sc(Nc2ccc(C)cc2C)nc1C` it was 0.388; in that of `Cc1ccc(-n2c(SCC(=O)N3CCOCC3)nnc2-c2ccncc2)cc1`, 0.261; in that of `CCn1c(CNC(=O)c2cccs2)nnc1SCC(=O)Nc1ccc(Cl)cc1`, -0.544. For the molecule `O=C(O)CSc1nnc(-c2ccc3c(c2)OCO3)o1`, the z-score amounted to 0.0398. As for `CCCn1c(C)cc(C(=O)CSc2nc3ccccc3c(=O)n2Cc2ccco2)c1C`, the figure is 0.00814; as for `Cc1cccc(Cn2c(=O)n(Cc3ccco3)c(=O)c3ccccc32)c1`, -0.97.
